Measured values reported in PubChem BioAssay AID588855 (National Center for Advancing Translational Sciences (NCATS), 2011).
In all, about 410,000 compounds went through this assay and about 5,000 (1.2%) were called active. The inconclusive results got no clear call from the source; some entries with a clear call stand among them for comparison. Calls come from the whole dose curve; as a rule, active = well fitted inhibition curve with a large enough effect; inconclusive = small, poorly fitted or top-dose-only effect; inactive = no such curve, though single readings can be large or run the other way. Potencies of inconclusive entries are doubtful fits and often do not repeat.

Test: qHTS for Inhibitors of TGF-b; note: nearly all actives have a fitted effect of over 65% in size
Details: HepG2 CAGA-GFP TGF-b/SMAD3 reporter, GFP fluorescence, 18 h, TGF-beta stimulated, 500 pg/mL final; series mostly up to 46.1 µM
In short: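 HEPG2 CAGA-GFP cells (1000/well, DMEM with 1% FBS) were pre-incubated 2 h at 37 degrees C, given compound by pin tool, then stimulated with TGF-beta at 500 pg/mL final for 18 h before per-cell GFP fluorescence imaging.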
Potency is the fitted concentration of half-maximal effect; tags give direction and shape of the fitted curve.

Row | SMILES | Potency
1 | Cc1occc1C(=O)Nc1sc2c(c1C(N)=O)CCC(C(C)(C)C)C2 (stereo not given) | inconclusive: 22.4 µM [inhibitor, single point]
2 | O=c1oc2ccccc2c2oc3cc(O)c(O)cc3c12 | inconclusive: 3.98 µM [inhibitor, single point]
3 | N=c1c2c(-c3ccccc3)c(-c3ccccc3)n(Cc3ccco3)c2ncn1CCCO | active: 25.1 µM
4 | Nc1nonc1-n1nnc(C(=O)N/N=C/c2ccccc2O)c1CN1CCCC1 | inconclusive: 7.94 µM [inhibitor, partial curve, poor fit]
5 | CC(C)(C)OC(=O)NCCCC[C@H](NC(=O)c1nc[nH]c1C(=O)N1CCN(c2ccccc2)CC1)C(=O)OC(C)(C)C | inconclusive: 35.5 µM [inhibitor, single point]
6 | CC(C)[C@H](NC(=O)c1ccc(Cl)cc1Cl)C(=O)OCc1nc2ccsc2c(=O)[nH]1 | inactive
7 | C[C@H]1CN([C@@H](C)CO)C(=O)c2cc(Br)cnc2O[C@@H]1CN(C)S(C)(=O)=O | inactive
8 | COc1cccc(N2CCN(C(=O)c3ccc4ccccc4c3)CC2)c1 | inconclusive: 15.8 µM [inhibitor, single point]
9 | O=C(COc1ccc(Cl)cc1[N+](=O)[O-])NC1CCCCC1 | inconclusive: 15.8 µM [inhibitor, partial curve, poor fit]
10 | Cc1ccc(COc2cccc3c2CCN(Cc2ccc(F)cc2)C3=O)cc1 | inconclusive: 35.5 µM [inhibitor, partial curve, poor fit]
11 | CCC(=O)NC(c1cccs1)c1ccc2cccnc2c1O (stereo not given) | active: 1 µM
12 | CCCn1c(CN2CCN(C(=O)OCC)CC2)nc2cc(NC(=O)C(C)C)ccc21 | inactive
13 | Cn1c(=O)c2c(-c3ccccc3)n3c(c2n(C)c1=O)C(c1ccccc1[N+](=O)[O-])Nc1ccccc1-3 (stereo not given) | inconclusive: 0.891 µM [inhibitor, full curve]
14 | COC(=O)[C@H](CCSC)NC(=O)[C@@H](Cc1cnc[nH]1)NC(=O)OCc1ccccc1 | inactive
15 | COc1ccccc1C(=O)NCC(=O)N1CC=C(c2ccccc2)CC1 | inconclusive: 0.708 µM [inhibitor, full curve, poor fit]
16 | COC(=O)C1=NN(C(=O)c2ccc(Cl)cc2)C(O)(c2ccccc2)C1 (stereo not given) | inconclusive: 22.4 µM [inhibitor, partial curve, poor fit]
17 | CCOC(=O)c1sc(N(C)C(C)=O)nc1C | inactive
18 | O=C(NCc1ccccn1)C1(C(F)(F)F)CC(CCCO)CCCO1 (stereo not given) | inactive
19 | CN(C)C=NC(=O)c1[nH]c2ccc(Cl)cc2c1-c1ccccc1 | inconclusive: 35.5 µM [inhibitor, single point]
20 | CCc1ccc(NC(=O)C(NS(=O)(=O)c2cccs2)C(C)C)cc1 (stereo not given) | inconclusive: 0.112 µM [inhibitor, full curve, poor fit]
21 | CC(NC(=O)Cc1ccc(S(=O)(=O)N2CCOCC2)s1)c1ccc(Cl)cc1Cl (stereo not given) | inactive
22 | CC1=Nc2cccc3cccc(c23)N1C | inconclusive: 35.5 µM [inhibitor, single point]

Row | SMILES | Potency
23 | CCCCN(C(C)=O)c1ccc2c(c1)C1CC2CCN1C(=O)OCc1ccccc1 (stereo not given) | active: 12.6 µM
24 | COc1ccc(Nc2nnc(SCC(=O)Nc3cc(C)on3)s2)cc1 | inactive
25 | CCOc1ccc2nc(SC3CC(=O)N(c4ccccc4)C3=O)sc2c1 (stereo not given) | inconclusive: 35.5 µM [inhibitor, single point]
26 | Cc1[nH]c(N=Nc2ccccc2)nc1N=Nc1ccccc1 | inconclusive: 35.5 µM [inhibitor, single point]
27 | Cc1ccc(CCc2nnc(SCC(=O)Nc3cc(Cl)ccc3Cl)n2-c2ccccc2)o1 | inconclusive: 15.8 µM [inhibitor, single point]
28 | COC(=O)C1=C(c2ccccc2)c2ccccc2S(=O)(=O)N1CC(=O)Nc1cccc(C(C)=O)c1 | inactive
29 | c1ccc(C2=Nc3cccc4cccc(c34)N2)cc1 | inconclusive: 6.31 µM [inhibitor, single point]
30 | CCCc1ccc(-c2csc(NC(=O)C3=COCCO3)n2)cc1 | inactive
31 | NC(N)=NC(=O)Cc1c(Cl)cccc1Cl | inactive
32 | O=C(CN(c1ccccc1)S(=O)(=O)c1ccccc1)NCCSc1ccccn1 | inactive
33 | COc1cccc(C(=O)NC2CC3CCCC(C2)N3S(=O)(=O)c2ccccc2)c1 (stereo not given) | inconclusive: 4.47 µM [inhibitor, partial curve, poor fit]
34 | CCC(CC)NC(=O)c1ccc(Cl)cc1 | inconclusive: 35.5 µM [inhibitor, single point]
35 | Cc1cccc(NC(=O)c2cccc([N+](=O)[O-])c2O)c1C | inconclusive: 11.2 µM [inhibitor, partial curve, poor fit]
36 | Cc1onc(-c2ccccc2)c1C(=O)NNC(=S)NC(=O)c1ccc2c(c1)OCO2 | inconclusive: 28.2 µM [inhibitor, single point]
37 | Cc1ccc(NC(=O)c2ncn(CC(=O)N[C@H](C)c3cccc4ccccc34)n2)cc1C | inactive
38 | Cc1ccc([N+](=O)[O-])cc1NC(=S)NCCc1ccccc1 | inactive
39 | C#CCOCCOCCOCCNc1nc(N2CCN(C(=O)CCCCCCCCCCNC(=O)[C@H](CCCCN)n3cc(C[C@@H](C)CC)nn3)CC2)nc(N2CCN(C(=O)CCCCCCCCCCNC(=O)[C@@H]([C@H](C)O)n3cc(C)nn3)CC2)n1 | inconclusive: 10 µM [inhibitor, partial curve, poor fit]
40 | Cc1cc(C)cc(N(CC(=O)N2CC=C(c3ccccc3)CC2)S(=O)(=O)c2c(C)noc2C)c1 | inconclusive: 2.82 µM [inhibitor, full curve]
41 | CC1(C(=O)NCc2ccccc2Br)CCN1Cc1ccc(-c2ccccn2)cc1 (stereo not given) | inconclusive: 10 µM [inhibitor, single point]
42 | O=C(NCc1ccc2c(c1)OCO2)c1ccc2c(=O)n(C3CCCC3)c(=O)[nH]c2c1 | inconclusive: 22.4 µM [inhibitor, single point]
43 | COC(=O)c1ccc2c(c1)C(NC(C)=O)CCc1cc(OC)c(OC)c(OC)c1-2 (stereo not given) | inconclusive: 0.398 µM [inhibitor, full curve, poor fit]
44 | CCc1ccc(-c2nc(CN3CCC(C(=O)NCCc4ccc(Cl)cc4)CC3)c(C)o2)cc1 | inactive

Row | SMILES | Potency
45 | O=C(COC(=O)c1ccc(O)cc1O)Nc1ccc2ccccc2c1 | inconclusive: 17.8 µM [inhibitor, single point]
46 | Cc1cccc(COCC(Cc2ccccc2)N2CCN(C(=O)c3ccc(C(F)(F)F)cc3)CCC2=O)c1 (stereo not given) | inconclusive: 17.8 µM [inhibitor, partial curve, poor fit]
47 | O=C(NCCc1cccs1)c1ccc(Cn2c(SCc3ccc(F)cc3)nc3cccnc32)cc1 | inconclusive: 11.2 µM [inhibitor, partial curve]
48 | Fc1cc(F)c(C2SCCN2C(=S)Nc2cccc(C(F)(F)F)c2)c(F)c1 (stereo not given) | inconclusive: 7.08 µM [inhibitor, partial curve, poor fit]
49 | COc1ccc(C(=O)CN2CCN(S(=O)(=O)c3ccc(C(C)C)cc3)CC2)cc1 | inconclusive: 1.12 µM [inhibitor, full curve, poor fit]
50 | O=C(Nc1cc([N+](=O)[O-])ccc1N1CCCC1)c1ccccc1 | inconclusive: 31.6 µM [inhibitor, single point]
51 | CC(C)(C)[C@H]1COC(=O)[C@H](NC(=O)OCC2c3ccccc3-c3ccccc32)C/C=C\C[C@@H](CC(=O)N(CCO)Cc2ccccc2)C(=O)N1 | inconclusive: 12.6 µM [inhibitor, partial curve, poor fit]
52 | COc1cccc(C2CC(=O)Nc3cc4c(cc32)OCCO4)c1OC (stereo not given) | inactive
53 | Cc1ccccc1-c1cc2nc(Nc3ccc(F)cc3)n(C)c(=O)c2s1 | inconclusive: 22.4 µM [inhibitor, single point]
54 | CCc1ccccc1NC(=O)CCn1nc(C)c2c(C)n(-c3ccccc3)nc2c1=O | inactive
55 | COc1ccc(CCCc2nnc(SCC(=O)N/N=C\c3ccc(O)c(OC)c3)o2)cc1C | inconclusive: 1.12 µM [inhibitor, partial curve, poor fit]
56 | Cc1ccccc1Cn1c(SCc2ccc(C(=O)NC(C)c3ccccc3)cc2)nc2ccncc21 (stereo not given) | inconclusive: 10 µM [inhibitor, partial curve, poor fit]
57 | CC(C)[C@@H]1CC[C@@H](C)c2c(-c3ccccc3)n[nH]c21 | inconclusive: 35.5 µM [inhibitor, single point]
58 | O=C(Cc1ccc(Cl)cc1)Nc1cccc(-c2nnc(-c3ccco3)o2)c1 | inactive
59 | COc1ccc(C(=O)/C=C/c2ccccc2)c(O)c1 | inconclusive: 17.8 µM [inhibitor, single point]
60 | Cc1cccc(OCCCC(=O)NC2CCCCC2)c1 | inconclusive: 0.631 µM [inhibitor, full curve, poor fit]
61 | Cc1cccc(Cn2c(=O)n(-c3ccc(CC(=O)NCc4ccco4)cc3)c(=O)c3sccc32)c1 | inconclusive: 10 µM [inhibitor, single point]
62 | COc1ccc(-c2cc3nc(C)c(C)c(N4CCN(C(=O)c5ccoc5)CC4)n3n2)cc1 | inactive
63 | Cn1c(=O)c2c(-c3ccccc3)n(-c3cc(Cl)c([N+](=O)[O-])cc3O)cc2n(C)c1=O | inconclusive: 35.5 µM [inhibitor, single point]
64 | Cc1cccc(NC(=S)NCc2cccs2)c1 | inactive
65 | COc1ccc(C2(C)NC(=O)N(CC(=O)NC(C)c3ccc(CC(C)C)cc3)C2=O)cc1 (stereo not given) | inconclusive: 11.2 µM [inhibitor, partial curve]
